Test [1] concerns the target ARID1A (AT-rich interacting domain-containing protein 1A), endogenous (mouse (endogenous in BMDMs)) (UniProt A2BH40). Briefly: co-IP.
The target of test [2] is FLAG-tagged NSD2, wild type (UniProt Q8BVE8). The test is described as follows: co-IP; tagged proteins co-transfected in HEK293T cells.
Test [3] deals with V5-tagged ARID1A (PEF1a-V5-Arid1a) (UniProt A2BH40). The test is described as above.
Test [4] has as its target FLAG-tagged NSD2 C-terminal (629-1367aa) (UniProt Q8BVE8). The description is as above.

Protein sequences, listed by entry. Tags and fused reporters are not part of them. Lines headed by an entry give the natural chain unless they say otherwise; changes in a name come on top. Chains listed by the source or under a name are the forms on record and can include a tag or linker. Residues count along the entry.
UniProt A2BH40: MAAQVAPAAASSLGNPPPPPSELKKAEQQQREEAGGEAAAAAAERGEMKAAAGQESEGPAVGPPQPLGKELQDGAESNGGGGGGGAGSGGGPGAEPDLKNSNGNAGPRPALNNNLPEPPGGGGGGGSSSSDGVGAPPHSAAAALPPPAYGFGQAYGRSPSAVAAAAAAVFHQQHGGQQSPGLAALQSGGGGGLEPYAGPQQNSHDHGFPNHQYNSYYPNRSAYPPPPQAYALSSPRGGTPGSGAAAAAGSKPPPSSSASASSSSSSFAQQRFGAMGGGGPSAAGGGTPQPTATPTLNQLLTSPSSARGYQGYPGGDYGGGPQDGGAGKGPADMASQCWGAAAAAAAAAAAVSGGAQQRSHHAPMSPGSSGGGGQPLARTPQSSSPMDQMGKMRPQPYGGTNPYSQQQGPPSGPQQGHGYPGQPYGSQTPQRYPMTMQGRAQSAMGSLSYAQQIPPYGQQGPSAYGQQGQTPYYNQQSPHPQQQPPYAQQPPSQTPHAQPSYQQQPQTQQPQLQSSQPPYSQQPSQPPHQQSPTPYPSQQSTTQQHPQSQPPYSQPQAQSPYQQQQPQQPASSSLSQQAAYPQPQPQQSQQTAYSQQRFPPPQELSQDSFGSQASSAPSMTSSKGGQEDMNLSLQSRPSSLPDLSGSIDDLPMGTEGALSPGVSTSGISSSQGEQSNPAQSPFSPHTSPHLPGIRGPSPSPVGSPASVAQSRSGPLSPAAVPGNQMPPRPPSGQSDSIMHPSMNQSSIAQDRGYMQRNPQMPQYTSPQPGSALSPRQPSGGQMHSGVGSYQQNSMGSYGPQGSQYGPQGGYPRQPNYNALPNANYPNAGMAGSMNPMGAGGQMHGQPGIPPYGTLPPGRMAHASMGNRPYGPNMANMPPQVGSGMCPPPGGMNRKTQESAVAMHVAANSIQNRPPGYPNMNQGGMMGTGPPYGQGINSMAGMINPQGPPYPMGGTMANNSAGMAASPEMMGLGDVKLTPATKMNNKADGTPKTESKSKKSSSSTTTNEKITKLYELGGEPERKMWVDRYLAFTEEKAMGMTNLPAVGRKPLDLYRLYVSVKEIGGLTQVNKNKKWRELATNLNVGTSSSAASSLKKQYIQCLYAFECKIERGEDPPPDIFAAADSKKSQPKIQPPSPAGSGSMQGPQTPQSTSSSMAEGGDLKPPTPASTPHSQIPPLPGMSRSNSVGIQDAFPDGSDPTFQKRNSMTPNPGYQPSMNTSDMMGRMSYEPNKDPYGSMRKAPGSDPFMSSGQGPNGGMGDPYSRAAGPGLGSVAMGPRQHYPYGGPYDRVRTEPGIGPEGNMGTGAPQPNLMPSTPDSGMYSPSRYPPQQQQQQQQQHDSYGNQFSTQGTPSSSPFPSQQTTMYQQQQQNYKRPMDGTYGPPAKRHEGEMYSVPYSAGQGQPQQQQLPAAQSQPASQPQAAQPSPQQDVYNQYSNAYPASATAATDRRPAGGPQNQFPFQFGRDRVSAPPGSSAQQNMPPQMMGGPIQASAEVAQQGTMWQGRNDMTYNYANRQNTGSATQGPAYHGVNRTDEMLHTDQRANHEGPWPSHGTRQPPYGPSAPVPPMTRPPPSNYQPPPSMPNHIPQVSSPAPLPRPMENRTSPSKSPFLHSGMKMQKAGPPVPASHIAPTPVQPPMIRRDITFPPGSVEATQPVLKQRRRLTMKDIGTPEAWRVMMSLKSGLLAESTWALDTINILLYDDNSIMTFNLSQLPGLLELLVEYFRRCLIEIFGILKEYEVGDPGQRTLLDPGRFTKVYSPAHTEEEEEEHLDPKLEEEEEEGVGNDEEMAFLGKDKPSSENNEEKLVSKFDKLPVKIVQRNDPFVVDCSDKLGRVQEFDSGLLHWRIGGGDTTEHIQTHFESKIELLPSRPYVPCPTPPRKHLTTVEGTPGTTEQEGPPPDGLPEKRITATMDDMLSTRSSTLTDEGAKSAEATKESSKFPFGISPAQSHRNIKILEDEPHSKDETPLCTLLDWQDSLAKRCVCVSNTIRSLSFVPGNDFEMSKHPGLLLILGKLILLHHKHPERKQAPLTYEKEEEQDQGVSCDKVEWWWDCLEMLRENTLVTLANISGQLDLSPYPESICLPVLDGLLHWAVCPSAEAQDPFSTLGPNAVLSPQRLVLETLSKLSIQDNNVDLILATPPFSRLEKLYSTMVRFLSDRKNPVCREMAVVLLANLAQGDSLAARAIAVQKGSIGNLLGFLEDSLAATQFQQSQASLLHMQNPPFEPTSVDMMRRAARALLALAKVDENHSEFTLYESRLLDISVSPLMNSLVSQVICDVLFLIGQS
UniProt Q8BVE8: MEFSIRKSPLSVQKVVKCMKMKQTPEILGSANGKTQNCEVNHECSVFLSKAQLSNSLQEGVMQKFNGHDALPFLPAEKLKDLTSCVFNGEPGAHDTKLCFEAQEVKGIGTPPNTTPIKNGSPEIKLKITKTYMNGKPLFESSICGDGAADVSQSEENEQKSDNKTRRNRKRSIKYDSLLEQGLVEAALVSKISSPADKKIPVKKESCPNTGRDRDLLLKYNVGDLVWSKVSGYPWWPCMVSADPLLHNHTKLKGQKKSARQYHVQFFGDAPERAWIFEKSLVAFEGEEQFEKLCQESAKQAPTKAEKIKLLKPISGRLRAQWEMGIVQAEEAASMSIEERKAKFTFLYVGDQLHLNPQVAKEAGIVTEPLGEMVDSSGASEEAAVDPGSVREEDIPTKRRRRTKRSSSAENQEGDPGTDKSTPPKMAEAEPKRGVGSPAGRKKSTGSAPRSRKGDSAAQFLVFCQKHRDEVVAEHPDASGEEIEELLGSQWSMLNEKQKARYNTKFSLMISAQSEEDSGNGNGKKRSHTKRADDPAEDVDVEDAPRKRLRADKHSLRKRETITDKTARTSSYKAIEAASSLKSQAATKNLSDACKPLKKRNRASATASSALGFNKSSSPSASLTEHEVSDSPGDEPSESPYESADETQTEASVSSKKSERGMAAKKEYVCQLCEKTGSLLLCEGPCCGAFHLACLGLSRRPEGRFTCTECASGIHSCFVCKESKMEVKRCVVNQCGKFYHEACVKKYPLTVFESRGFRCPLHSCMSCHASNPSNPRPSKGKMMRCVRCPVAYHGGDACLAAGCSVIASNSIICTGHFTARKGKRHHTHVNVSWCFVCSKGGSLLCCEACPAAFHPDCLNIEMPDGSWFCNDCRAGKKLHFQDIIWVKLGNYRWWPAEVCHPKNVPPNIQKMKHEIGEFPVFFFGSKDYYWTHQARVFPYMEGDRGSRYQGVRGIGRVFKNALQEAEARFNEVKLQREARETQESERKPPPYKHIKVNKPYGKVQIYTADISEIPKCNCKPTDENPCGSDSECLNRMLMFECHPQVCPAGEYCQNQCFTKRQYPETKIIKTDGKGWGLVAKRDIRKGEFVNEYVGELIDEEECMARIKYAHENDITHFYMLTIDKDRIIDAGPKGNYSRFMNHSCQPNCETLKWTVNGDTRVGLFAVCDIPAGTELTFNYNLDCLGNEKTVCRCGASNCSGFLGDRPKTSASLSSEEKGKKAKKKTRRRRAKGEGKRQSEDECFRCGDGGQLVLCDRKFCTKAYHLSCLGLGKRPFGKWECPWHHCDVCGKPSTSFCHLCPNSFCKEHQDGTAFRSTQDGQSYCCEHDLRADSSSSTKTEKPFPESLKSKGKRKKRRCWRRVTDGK
FLAG-tagged NSD2 C-terminal (629-1367aa): residues 629-1365 of Q8BVE8

Results are given in words; binding and its absence hold for the method and conditions named. Binding seen in cells or lysates may run through a third protein. Some binding calls cover weakened binding; strength is not graded here. For part of these data: Sequences can lack the tags named with a protein.

B1: endogenous phosphorylated IRF3 (protein, UniProt P70671 1-419)
chain: METPKPRILPWLVSQLDLGQLEGVAWLDESRTRFRIPWKHGLRQDAQMADFGIFQAWAEASGAYTPGKDKPDVSTWKRNFRSALNRKEVLRLAADNSKDPYDPHKVYEFVTPGARDFVHLGASPDTNGKSSLPHSQENLPKLFDGLILGPLKDEGSSDLAIVSDPSQQLPSPNVNNFLNPAPQENPLKQLLAEEQWEFEVTAFYRGRQVFQQTLFCPGGLRLVGSTADMTLPWQPVTLPDPEGFLTDKLVKEYVGQVLKGLGNGLALWQAGQCLWAQRLGHSHAFWALGEELLPDSGRGPDGEVHKDKDGAVFDLRPFVADLIAFMEGSGHSPRYTLWFCMGEMWPQDQPWVKRLVMVKVVPTCLKELLEMAREGGASSLKTVDLHISNSQPISLTSDQYKAYLQDLVEDMDFQATGNI
modifications: phosphorylated (sites not given)
Regarding B1, in test [1], the binding entry is “binds”.

B2: Myc-tagged IRF3, wild type (protein, UniProt P70671 1-419)
chain: B1 chain
With B2, the binding entry in test [2], in test [3] and in test [4] was “binds” each time.

B3: Myc-tagged IRF3 with the DNA binding domain (DBD; 1-140aa) deleted (domain or fragment, UniProt P70671 141-419)
chain: KLFDGLILGPLKDEGSSDLAIVSDPSQQLPSPNVNNFLNPAPQENPLKQLLAEEQWEFEVTAFYRGRQVFQQTLFCPGGLRLVGSTADMTLPWQPVTLPDPEGFLTDKLVKEYVGQVLKGLGNGLALWQAGQCLWAQRLGHSHAFWALGEELLPDSGRGPDGEVHKDKDGAVFDLRPFVADLIAFMEGSGHSPRYTLWFCMGEMWPQDQPWVKRLVMVKVVPTCLKELLEMAREGGASSLKTVDLHISNSQPISLTSDQYKAYLQDLVEDMDFQATGNI
For B3, the binding result in test [3] is recorded as “no binding”.

B4: Myc-tagged IRF3 with the IRF association domain (IAD; 198-374 aa) deleted (protein, UniProt P70671)
chain: METPKPRILPWLVSQLDLGQLEGVAWLDESRTRFRIPWKHGLRQDAQMADFGIFQAWAEASGAYTPGKDKPDVSTWKRNFRSALNRKEVLRLAADNSKDPYDPHKVYEFVTPGARDFVHLGASPDTNGKSSLPHSQENLPKLFDGLILGPLKDEGSSDLAIVSDPSQQLPSPNVNNFLNPAPQENPLKQLLAEEQWEGGASSLKTVDLHISNSQPISLTSDQYKAYLQDLVEDMDFQATGNI
For B4, the binding result in test [3] is “no binding”.
